# Measurements taken from the supplement of paper PMC4894684.
# Where a name gives a salt, the structure may show the parent alone. ± gives the standard deviation of the averaged measurements. Screen size: about 1,000 compounds; about 15 (2%) showed an effect of 50% or more. The list shows a part of the results.
# Tested on: HFF
# Experiment: uninfected host cell viability relative to vehicle control; higher = less host cell toxicity
# Settings: 5 µM; 72 h; oxygen 21 %
# 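Note: confluent HFF monolayers, run in parallel with the Toxoplasma growth screen as a host toxicity counterscreen.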
row,SMILES,uninfected host cell viability [%]
1,CCCCc1nn(-c2ccccc2C(F)(F)F)c(=O)n1Cc1ccc(-c2ccccc2S(=O)(=O)NC(=O)c2sccc2C)cc1,84.8 ± 3.6
2,O=[N+]([O-])c1cc(Cl)ccc1S(=O)(=O)N1CCN(Cc2ccccc2)CC1,98.8 ± 3.2
3,Cc1c(CC(C)(C)C(=O)O)n(Cc2ccc(Cl)cc2)c2ccc(F)cc12,91.8 ± 12
4,CS(=O)(=O)c1ccc(Cn2c3c(c4cc(F)cc(F)c42)CCCC3CC(=O)O)cc1 (configuration not stated),97.5 ± 3.3
5,C/N=C(/NC#N)NCCSCc1csc(NC(=N)N)n1 [Tiotidine],88.5 ± 3.6
6,CC[C@]1(O)C[C@@H]2CN(CCc3c([nH]c4ccccc34)[C@@](C(=O)OC)(c3cc4c(cc3OC)N(C)[C@H]3[C@@](O)(C(=O)OC)[C@H](OC(C)=O)[C@]5(CC)C=CCN6CC[C@]43[C@@H]65)C2)C1 [Vinblastine sulfate],62.13 ± 0.3
7,CCCCC#Cc1nc(NC)c2ncn([C@@H]3O[C@H](CO)[C@@H](O)[C@H]3O)c2n1,87.5 ± 1.2
8,CN(CCOc1ccc(-c2ccc3c(c2)OCO3)cc1C(C)(C)C)CC(=O)O,89.62 ± 0.17
9,N[C@@H](CSS(=O)(=O)O)C(=O)O [S-Sulfo-L-cysteine sodium salt],99.5 ± 1.1
10,CC(C)c1onc(-c2c(Cl)cccc2Cl)c1COc1ccc(/C=C/c2cccc(C(=O)O)c2)c(Cl)c1,96.2 ± 2.9
11,C[C@@]1(O)[C@H](O)[C@@H](CO)O[C@H]1n1cnc2c(NC3CCCC3)nc(Cl)nc21,102 ± 2.9
12,Cc1[nH]c(/C=C2\C(=O)Nc3ccc(S(=O)(=O)Cc4c(Cl)cccc4Cl)cc32)c(C)c1C(=O)N1CCC[C@@H]1CN1CCCC1,89.5 ± 2.3
13,CC(C)N(CCC(=O)c1ccc2ccccc2c1)Cc1ccccc1,85.3 ± 0.21
14,CC(O)(C(=O)Nc1ccc(S(=O)(=O)c2ccccc2)cc1)C(F)(F)F (configuration not stated),99.7 ± 2.5
15,CC(CCc1ccc(O)cc1)NCCc1ccc(O)c(O)c1 (configuration not stated) [Dobutamine hydrochloride],85.8 ± 4.4
16,"C1CCC2(CC1)CCNCC2 [4,4-Pentamethylenepiperidine hydrochloride]",84.79 ± 0.68
17,CC1=C(C(=O)OCCN(Cc2ccccc2)c2ccccc2)C(c2cccc([N+](=O)[O-])c2)C(P2(=O)OCC(C)(C)CO2)=C(C)N1 (configuration not stated) [Efonidipine hydrochloride monoethanolate],98.4 ± 7.4
18,CCN1CCC[C@H]1CNC(=O)c1cc(S(N)(=O)=O)ccc1OC [(S)-(-)-Sulpiride],90.2 ± 4.3
19,Clc1ccc(-c2nc3sccn3c2/C=N/OCc2ccc(Cl)c(Cl)c2)cc1,98.6 ± 1.2
20,COc1cc2ncnc(Nc3ccc(Oc4ccccc4)cc3)c2cc1OC,79.69 ± 0.58
21,CC1CCN(CCCC(=O)c2ccc(F)cc2)CC1 [Melperone hydrochloride],88.9 ± 1.8

row,SMILES,uninfected host cell viability [%]
1,O=C1C(Cl)=C(NCCN2CCOCC2)C(=O)c2ncccc21,34.44 ± 0.16
2,COc1cc2c(cc1OC)-c1cc3nc4ccccc4nc3n1C(C)(C)C2,95.5 ± 3
3,COc1ccccc1OCCNCC(O)COc1cccc2[nH]c3ccccc3c12 (configuration not stated) [Carvedilol],92.4 ± 0.94
4,COc1ccc(CCCOC(Cn2ccnc2)c2ccc(OC)cc2)cc1 (configuration not stated),96.51 ± 0.62
5,O=C(NCC1CCCCN1)c1cc(OCC(F)(F)F)ccc1OCC(F)(F)F (configuration not stated) [Flecainide acetate],92.7 ± 6.4
6,CCN1CCCC1CNC(=O)c1cc(S(=O)(=O)CC)c(N)cc1OC (configuration not stated) [Amisulpride],87.2 ± 0.18
7,Nc1nc(N)nc(-c2cc(Cl)ccc2Cl)n1 [Irsogladine maleate],88.9 ± 3.2
8,CC(C)[C@H](CO)Nc1nc(Nc2cc(N)cc(Cl)c2)c2ncn(C(C)C)c2n1 [Aminopurvalanol A],73.3 ± 1.1
9,O=C(c1ccc(OCCN2CCCCC2)cc1)c1c(-c2ccc(O)cc2)sc2cc(O)ccc12 [Raloxifene hydrochloride],94.4 ± 2.2
10,COc1cc(C[C@H]2C(=O)OC[C@@H]2Cc2ccc(OC)c(OC)c2)ccc1O [Arctigenin],90 ± 1.6
11,CN(C)[C@@H]1CCc2[nH]c3ccc(NC(=O)c4ccc(F)cc4)cc3c2C1,93.5 ± 1.4
12,CCOC(=O)C1=C(C)NC(C)=C(C(=O)OC)C1c1cccc([N+](=O)[O-])c1 (configuration not stated) [Nitrendipine],85.5 ± 2
13,Cc1nc2c(OCc3ccccc3)cccn2c1CC#N,86.4 ± 2.8
14,c1ccc(N2CCN(CCCOc3ccc4c(c3)OCO4)CC2)cc1 [BP 554 maleate],90.9 ± 6.9
15,N[C@@H](C(=O)O)c1ccc(O)c(C(=O)O)c1 [(R)-3-Carboxy-4-hydroxyphenylglycine],87 ± 2.7
16,COc1cc(N)c(Cl)cc1C(=O)NC1CCN(CCCOc2ccc(F)cc2)CC1OC (configuration not stated) [Cisapride],90.89 ± 0.45
17,CCN(CC)CCCCC1CCN(CC(=O)N2c3ccccc3C(=O)Nc3cccnc32)CC1,89.2 ± 4.3
18,COc1ccccc1N1CCN(CCN2C(=O)CC3(CCCC3)CC2=O)CC1 [BMY 7378 dihydrochloride],94.8 ± 2.5
19,"C[C@H](NC(=O)/C(C#N)=C/c1ccc(O)c(O)c1)c1ccccc1 [Tyrphostin B44, (+) enantiomer]",86.1 ± 2
20,O=S(=O)(NCCNC/C=C/c1ccc(Br)cc1)c1cccc2cnccc12 [H 89 dihydrochloride],83 ± 1.2
21,CN(C)CCCC1(c2ccc(F)cc2)OCc2cc(C#N)ccc21 (configuration not stated) [Citalopram hydrobromide],88.98 ± 0.74

row,SMILES,uninfected host cell viability [%]
1,CCn1c(=O)n(C2=C(CO)CN(CC3CCCCCCC3)CC2)c2ccccc21,94 ± 4.1
2,O=C1c2ccccc2C(Cc2ccncc2)(Cc2ccncc2)c2ccccc21 [XE 991 dihydrochloride],96.4 ± 1.7
3,O=C1CCc2c(ccc3ccccc23)O1 [Splitomicin],84 ± 0.96
4,Cc1c(OCC(F)(F)F)ccnc1C[S+]([O-])c1nc2ccccc2[nH]1 (configuration not stated) [Lansoprazole],81.3 ± 3.4
5,O=C(Nc1ccc(C(F)(F)F)cn1)N1CCN(c2ncccc2C(F)(F)F)CC1,85.9 ± 1.2
6,O=C(O)c1ccccc1Nc1cccc(OCc2ccc3ccccc3n2)c1 [SR 2640 hydrochloride],86.3 ± 4.8
7,CC(=O)NCCc1c(Cc2ccccc2)[nH]c2ccccc12 [Luzindole],101 ± 4.8
8,CCCCOC(=O)c1cc2c(cn1)[nH]c1ccccc12,81.5 ± 0.91
9,O=S(=O)(c1cccc2cnccc12)N1CCCNCC1 [Fasudil hydrochloride],90.57 ± 0.53
10,CCc1nn(CCCN2CCN(c3cccc(Cl)c3)CC2)c(=O)n1CCOc1ccccc1 [Nefazodone hydrochloride],86.6 ± 1.3
11,CCC(=O)O[C@]1(C(=O)SCF)[C@H](C)C[C@H]2[C@@H]3C[C@H](F)C4=CC(=O)C=C[C@]4(C)[C@@]3(F)[C@@H](O)C[C@@]21C [Fluticasone propionate],92.6 ± 2.5
12,CCc1cc(Cl)c(OC)c(C(=O)NC[C@@H]2CCCN2CC)c1O [Eticlopride hydrochloride],87.7 ± 5.2
13,NS(=O)(=O)c1nn2cc(-c3ccccc3)nc2s1,107 ± 5.2
14,C=CCN1CCc2cc(O)c(O)cc2C(c2ccccc2)C1 (configuration not stated),94.2 ± 3.8
15,O=C(NCCCCCCNC(=O)ON=C1CCCCC1)ON=C1CCCCC1,89.5 ± 1.6
16,c1ccc2sc(N3CCN(Cc4ccc5c(c4)OCO5)CC3)nc2c1 [2-[1-(4-Piperonyl)piperazinyl]benzothiazole],88.2 ± 0.95
17,O=C(c1ccc(F)cc1)C1CCN(CCn2c(=S)[nH]c3ccccc3c2=O)CC1 [Altanserin hydrochloride],83.2 ± 2.8
18,Cc1ccc(Sc2cncc3sc(C(N)=O)cc23)cc1,77.27 ± 0.73
19,O=C(O)c1cc(=O)c2ccccc2[nH]1 [Kynurenic acid],93.06 ± 0.4
20,N[C@H](C(=O)O)c1ccc(C(=O)O)c(O)c1 [(S)-4-Carboxy-3-hydroxyphenylglycine],85.73 ± 0.091
21,O=c1cc(N2CCOCC2)oc2c(-c3ccccc3)cccc12,81.6 ± 2.9

row,SMILES,uninfected host cell viability [%]
1,CC(=Nc1ccccc1N)c1c(C)cc(=O)n(O)c1O,96.6 ± 2.4
2,OCC(CO)N[C@H]1C[C@](O)(CO)[C@@H](O)[C@H](O)[C@H]1O [Voglibose],94.9 ± 2.8
3,COc1ccc(-c2oc3cc(OC)ccc3c2C(=O)c2ccc(C#N)cc2)cc1,108 ± 1.2
4,Cc1nc2sccn2c(=O)c1CCN1CCC(=C(c2ccc(F)cc2)c2ccc(F)cc2)CC1 [Ritanserin],87.9 ± 4.6
5,CN1CCN2c3ccccc3Cc3ccccc3C2C1 (configuration not stated) [Mianserin hydrochloride],84.2 ± 0.26
6,CCS(=O)(=O)N(C)[C@H]1c2cc(C#N)ccc2OC(C)(C)[C@@H]1O (racemic) [Chromanol 293B],91.3 ± 6.7
7,CC(C)SC(=N)N [S-Isopropylisothiourea hydrobromide],86.5 ± 5.4
8,CCc1ccc(OCc2ccccc2C(=O)Nc2ccc3nc(C)cc(N)c3c2)cc1,15 ± 0.61
9,CC1(COc2ccc(CC3SC(=O)NC3=O)cc2)CCCCC1 (configuration not stated) [Ciglitazone],88.8 ± 1.9
10,COc1ccc(Br)cc1S(=O)(=O)NC(=O)/C=C/c1ccccc1Cc1ccc2ccccc2c1,88.7 ± 4.6
11,CN1CCN(C(=O)c2nc3ccc(Cl)cc3[nH]2)CC1,86.1 ± 1.3
12,CN(C(=O)CCCOc1ccc2[nH]c(=O)ccc2c1)C1CCCCC1 [Cilostamide],96.4 ± 5.6
13,NC(C(=O)O)c1ccc(C(=O)O)c(C(=O)O)c1 (configuration not stated),83.7 ± 3.5
14,O=C(O)c1ccc(C=C2SC(=S)N(c3cccc(C(F)(F)F)c3)C2=O)cc1,87.8 ± 0.91
15,CCO/C(O)=C1\C(C)=NC(c2ccccc2)=C(C(=O)OCc2ccc([N+](=O)[O-])cc2)C1C#Cc1ccccc1 (configuration not stated),89.5 ± 0.55
16,CC12CC3CC(C)(C1)CC(N)(C3)C2 [Memantine hydrochloride],82.3 ± 1.4
17,COC(=O)[C@H]1[C@H]2C[C@H]3c4[nH]c5ccccc5c4CCN3C[C@H]2CC[C@@H]1O [Rauwolscine hydrochloride],92.5 ± 6
18,COP(=O)(OC)OC(c1ccc(Cl)cc1)P(=O)(OC)OC (configuration not stated),89.4 ± 8.1
19,CC(C)NCC(O)COc1cccc2[nH]ccc12 (configuration not stated) [Pindolol],86.3 ± 1.6
